Reference: PubChem BioAssay AID1476 (National Center for Advancing Translational Sciences (NCATS), 2009)
Hit rate of the full screen: of about 200,000 compounds, about 4,500 (2.2%) were called active. Inconclusive means that the source gave no clear call. Such entries were picked first, then a sample of the others. Calls come from the whole dose curve; as a rule, active = well fitted inhibition curve with a large enough effect; inconclusive = small, poorly fitted or top-dose-only effect, or effect the other way; inactive = flat fitted curve, though single readings scatter. A potency beside an inconclusive call is a rough fit, not a confirmed value.
Note: nearly all actives have a fitted effect of over 40% in size.
Potency is the fitted concentration of half-maximal effect; tags give direction and shape of the fitted curve.
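Throughout, for max response, negative = inhibition: plate controls were enzyme without inhibitor for no effect and buffer without enzyme for full effect.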

These compounds were tested against Cruzipain (Trypanosoma cruzi) (UniProt P25779) (assay: qHTS Assay for Promiscuous and Specific Inhibitors of Cruzain (without detergent)). Details: purified cruzain, Z-FR-AMC fluorescence, no detergent.
Sequence of UniProt P25779 (P25779 whole entry, looked up): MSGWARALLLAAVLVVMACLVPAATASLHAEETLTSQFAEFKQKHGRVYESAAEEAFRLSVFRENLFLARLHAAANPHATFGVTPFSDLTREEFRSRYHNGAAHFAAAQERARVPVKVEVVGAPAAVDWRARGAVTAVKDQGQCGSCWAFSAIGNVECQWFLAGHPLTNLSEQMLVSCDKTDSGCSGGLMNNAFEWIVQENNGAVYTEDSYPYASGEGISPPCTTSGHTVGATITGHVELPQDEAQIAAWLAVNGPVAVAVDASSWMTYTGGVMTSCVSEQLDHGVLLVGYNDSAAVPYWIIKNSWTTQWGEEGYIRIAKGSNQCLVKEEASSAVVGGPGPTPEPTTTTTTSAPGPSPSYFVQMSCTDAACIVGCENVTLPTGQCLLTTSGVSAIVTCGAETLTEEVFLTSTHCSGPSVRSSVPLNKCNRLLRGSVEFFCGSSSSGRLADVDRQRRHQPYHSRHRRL
Method in brief: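 Purified cruzain at 1.5 nM, pre-incubated 15 min with compound at room temperature in 100 mM sodium acetate pH 5.5, 5 mM DTT, 0.00005% Triton X-100. Reaction started with 2 uM Z-FR-AMC; AMC fluorescence increase over 60 s gives rate.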
With `Cc1ccc(Nc2nc(C(N)=O)c(NC(=O)c3ccccc3Br)s2)cc1` the Potency was inconclusive: 39.8 µM [inhibitor, single point]. With `COc1ccc(C2=NOC(Cn3c(Cc4ccc(Cl)cc4)nc4c3c(=O)n(C)c(=O)n4C)C2)cc1` (stereo not drawn) the Potency was inconclusive: 25.1 µM [activator, partial curve]. In the case of `CC(=O)c1ccc(NC(=O)CC2Sc3ccccc3NC2=O)cc1` (stereo not drawn), the max response, negative = inhibition is reported as inactive: -5.25%. With `COc1ccccc1N1CCN(C(=O)CCc2ccc(S(=O)(=O)NC(C)C)cc2)CC1` the Potency was inconclusive: 39.8 µM [activator, single point]. In the case of `CCN(CC)S(=O)(=O)c1cccc(-c2nnc(SC(C)C#N)n2Cc2ccccc2)c1` (stereo not drawn), the Potency is reported as inconclusive: 31.6 µM [activator, single point]. In the case of `COc1ccccc1CNc1ccnc(-c2ccc(N(C)C)cc2)n1`, the max response, negative = inhibition is reported as inactive: -13.3%. For `O=C(/C=C/NNC(=O)c1ccccc1)c1ccc(Br)cc1`, the Potency was inconclusive: 31.6 µM [inhibitor, single point]. For `O=C(CCN1c2ccccc2Sc2ccccc21)Nc1ccccc1`, the Potency was inconclusive: 31.6 µM [inhibitor, single point]. `COc1ccc(-c2ccc(C#N)c(SCC(=O)Nc3sc4c(c3C#N)CCC4)n2)cc1` was tested, and the Potency was active: 12.6 µM. In the case of `CCCCc1nc2sc3c(=O)n(N)cnc3c2c2c1CCCC2`, the Potency is reported as inconclusive: 31.6 µM [inhibitor, single point]. With `CC(=O)Nc1ccc(NC(=O)COC(=O)C2(c3ccc(Cl)cc3)CCCC2)cc1` the Potency was inconclusive: 39.8 µM [activator, single point]. With `Cc1ccc(N2C(=O)[C@@H]3[C@H](C2=O)C2c4ccccc4C=NN2[C@@H]3C(=O)c2ccc(Cl)cc2)cc1` (stereo partly drawn) the Potency was inconclusive: 39.8 µM [inhibitor, single point]. In the case of `Cc1ccc(NC(=O)CC2Nc3ccccc3NC2=O)cc1Cl` (stereo not drawn), the Potency is reported as active: 25.1 µM. With `COc1cc(OC)c2c(-c3cccc(-c4ccc(O)cc4)c3)cc(=O)oc2c1` the Potency was inconclusive: 35.5 µM [inhibitor, single point]. `Cc1ccc2c(c1)c1c(c(=O)n(-c3ccccc3C)c(=O)n1Cc1cccc(F)c1)n2C` was tested, and the max response, negative = inhibition was inactive: -6.01%. With `O=C(CNS(=O)(=O)c1cccc(Cl)c1)Nc1ccc(-c2nc3ccccc3s2)cc1` the Potency was inconclusive: 39.8 µM [inhibitor, single point]. For `O=C(Cc1cccs1)Nc1nnc(SCc2ccc(C(F)(F)F)cc2)s1`, the Potency was inconclusive: 39.8 µM [inhibitor, single point]. `Cc1c(C(=O)N(C)C)sc2c1c(=O)n(-c1ccccc1C(F)(F)F)c(=O)n2Cc1cccc(F)c1` was tested, and the Potency was inconclusive: 31.6 µM [activator, single point].
